We go through 26 molecules from patent US9873709B2 (priority 2013, dated 2018).

The experiment deals with isolated recombinant JAK1 kinase domain (Homo sapiens (Human), UniProt P23458). To be noted: read-out: JAK1 Ki; isolated recombinant JAK1 kinase domain, 25 μM ATP.
Usually Ki stands for the equilibrium dissociation constant of an inhibitor or competing ligand from its target. Regarding `CCOC(=O)N1CC=C(c2cccn3nc(Nc4ccc(C(=O)N5CCN(CC(C)C)CC5)cc4)nc23)CC1` [Example 2-301, ethyl 4-[2-[4-(4-isobutylpiperazine-1-carbonyl)anilino]-[1,2,4]triazolo[1,5-a]pyridin-8-yl]-3,6-dihydro-2H-pyridine-1-carboxylate], the inhibition constant Ki was 3.71 nM.
As to `CCOC(=O)N1CC=C(c2cccn3nc(Nc4ccc(C(=O)N5CCC(N6CCCC6)CC5)cc4)nc23)CC1` [Example 2-302, ethyl 4-[2-[4-(4-pyrrolidin-1-ylpiperidine-1-carbonyl)anilino]-[1,2,4]triazolo[1,5-a]pyridin-8-yl]-3,6-dihydro-2H-pyridine-1-carboxylate], the inhibition constant Ki was found to be 3.48 nM.
To `CCOC(=O)N1CC=C(c2cccn3nc(Nc4ccc(C(=O)N(C5CC5)C5CCN(C)CC5)cc4)nc23)CC1` [Example 2-303, ethyl 4-[2-[4-[cyclopropyl-(1-methyl-4-piperidyl)carbamoyl]anilino]-[1,2,4]triazolo[1,5-a]pyridin-8-yl]-3,6-dihydro-2H-pyridine-1-carboxylate] belongs 3.61 nM; to `CCOC(=O)N1CC=C(c2cccn3nc(Nc4ccc(C(=O)N5CCCC(O)(CN(C)C)CC5)cc4)nc23)CC1` (centres unmarked) [Example 2-304, ethyl 4-[2-[4-[4-[(dimethylamino)methyl]-4-hydroxy-azepane-1-carbonyl]anilino]-[1,2,4]triazolo[1,5-a]pyridin-8-yl]-3,6-dihydro-2H-pyridine-1-carboxylate], 6.24 nM.
As for `CCOC(=O)N1CC=C(c2cccn3nc(Nc4ccc(C(=O)N(C)CC5CCN(CC)C5)cc4)nc23)CC1` (centres unmarked) [Example 2-305, ethyl 4-[2-[4-[(1-ethylpyrrolidin-3-yl)methyl-methyl-carbamoyl]anilino]-[1,2,4]triazolo[1,5-a]pyridin-8-yl]-3,6-dihydro-2H-pyridine-1-carboxylate], the Ki worked out at 3.84 nM.
In the case of `CCOC(=O)N1CC=C(c2cccn3nc(Nc4ccc(C(=O)N5CCC(CN)CC5)cc4)nc23)CC1` [Example 2-307, ethyl 4-[2-[4-[4-(aminomethyl)piperidine-1-carbonyl]anilino]-[1,2,4]triazolo[1,5-a]pyridin-8-yl]-3,6-dihydro-2H-pyridine-1-carboxylate] it was 2.65 nM.
In the case of `CCOC(=O)N1CC=C(c2cccn3nc(Nc4ccc(C(=O)N5CCC6CNCC65)cc4)nc23)CC1` (centres unmarked) [Example 2-308, ethyl 4-[2-[4-(3,3a,4,5,6,6a-hexahydro-2H-pyrrolo[2,3-c]pyrrole-1-carbonyl)anilino]-[1,2,4]triazolo[1,5-a]pyridin-8-yl]-3,6-dihydro-2H-pyridine-1-carboxylate] it was 1.98 nM.
As for `CCOC(=O)N1CC=C(c2cccn3nc(Nc4ccc(C(=O)N5CCC6(CC5)CNCCO6)cc4)nc23)CC1` [Example 2-309, ethyl 4-[2-[4-(1-oxa-4,9-diazaspiro[5.5]undecane-9-carbonyl)anilino]-[1,2,4]triazolo[1,5-a]pyridin-8-yl]-3,6-dihydro-2H-pyridine-1-carboxylate], the Ki turned out to be 2.09 nM.
Consider `CCOC(=O)N1CC=C(c2cccn3nc(Nc4ccc(C(=O)N5CCC6(CCCN6)C5)cc4)nc23)CC1` (centres unmarked) [Example 2-310, ethyl 4-[2-[4-(1,7-diazaspiro[4.4]nonane-7-carbonyl)anilino]-[1,2,4]triazolo[1,5-a]pyridin-8-yl]-3,6-dihydro-2H-pyridine-1-carboxylate], for which the Ki was found to be 3.87 nM.
In the case of `CCOC(=O)N1CC=C(c2cccn3nc(Nc4ccc(C(=O)N5CCCC56CCNC6)cc4)nc23)CC1` (centres unmarked) [Example 2-311, ethyl 4-[2-[4-(1,7-diazaspiro[4.4]nonane-1-carbonyl)anilino]-[1,2,4]triazolo[1,5-a]pyridin-8-yl]-3,6-dihydro-2H-pyridine-1-carboxylate] it was 6.86 nM.
To `CCOC(=O)N1CC=C(c2cccn3nc(Nc4ccc(C(=O)N5CCC6(CCCNC6)C5)cc4)nc23)CC1` (centres unmarked) [Example 2-312, ethyl 4-[2-[4-(2,9-diazaspiro[4.5]decane-2-carbonyl)anilino]-[1,2,4]triazolo[1,5-a]pyridin-8-yl]-3,6-dihydro-2H-pyridine-1-carboxylate] belongs 2.06 nM; to `O=C(CCC(F)(F)F)N1CC=C(c2cccn3nc(Nc4ccc(C(=O)N5CC6CNCC6C5)cc4)nc23)CC1` (centres unmarked) [Example 2-313, 1-[4-[2-[4-(2,3,3a,4,6,6a-hexahydro-1H-pyrrolo[3,4-c]pyrrole-5-carbonyl)anilino]-[1,2,4]triazolo[1,5-a]pyridin-8-yl]-3,6-dihydro-2H-pyridin-1-yl]-4,4,4-trifluoro-butan-1-one], 1.57 nM; to `O=C(CCC(F)(F)F)N1CC=C(c2cccn3nc(Nc4ccc(C(=O)N5CCC6(CC5)CNC6)cc4)nc23)CC1` [Example 2-314, 1-[4-[2-[4-(2,7-diazaspiro[3.5]nonane-7-carbonyl)anilino]-[1,2,4]triazolo[1,5-a]pyridin-8-yl]-3,6-dihydro-2H-pyridin-1-yl]-4,4,4-trifluoro-butan-1-one], 0.63 nM.
Consider `NC1CC2(CCN(C(=O)c3ccc(Nc4nc5c(C6=CCN(C(=O)CCC(F)(F)F)CC6)cccn5n4)cc3)CC2)C1` [Example 2-315, 1-[4-[2-[4-(2-amino-7-azaspiro[3.5]nonane-7-carbonyl)anilino]-[1,2,4]triazolo[1,5-a]pyridin-8-yl]-3,6-dihydro-2H-pyridin-1-yl]-4,4,4-trifluoro-butan-1-one], for which the Ki was found to be 1.73 nM.
To `O=C(NCCC1CCCN1)c1ccc(Nc2nc3c(C4=CCN(C(=O)CCC(F)(F)F)CC4)cccn3n2)cc1` (centres unmarked) [Example 2-316, N-(2-pyrrolidin-2-ylethyl)-4-[[8-[1-(4,4,4-trifluorobutanoyl)-3,6-dihydro-2H-pyridin-4-yl]-[1,2,4]triazolo[1,5-a]pyridin-2-yl]amino]benzamide] belongs 0.69 nM.
To `O=C(NCC1CCCN1)c1ccc(Nc2nc3c(C4=CCN(C(=O)CCC(F)(F)F)CC4)cccn3n2)cc1` (centres unmarked) [Example 2-317, N-(pyrrolidin-2-ylmethyl)-4-[[8-[1-(4,4,4-trifluorobutanoyl)-3,6-dihydro-2H-pyridin-4-yl]-[1,2,4]triazolo[1,5-a]pyridin-2-yl]amino]benzamide] belongs 3.03 nM; to `O=C(CCC(F)(F)F)N1CC=C(c2cccn3nc(Nc4ccc(C(=O)N5CCNCC5)cc4)nc23)CC1` [Example 2-318, 4,4,4-trifluoro-1-[4-[2-[4-(piperazine-1-carbonyl)anilino]-[1,2,4]triazolo[1,5-a]pyridin-8-yl]-3,6-dihydro-2H-pyridin-1-yl]butan-1-one], 0.65 nM; to `CC1CNCCN1C(=O)c1ccc(Nc2nc3c(C4=CCN(C(=O)CCC(F)(F)F)CC4)cccn3n2)cc1` (centres unmarked) [Example 2-319, 4,4,4-trifluoro-1-[4-[2-[4-(2-methylpiperazine-1-carbonyl)anilino]-[1,2,4]triazolo[1,5-a]pyridin-8-yl]-3,6-dihydro-2H-pyridin-1-yl]butan-1-one], 0.57 nM.
To `O=C(CCC(F)(F)F)N1CC=C(c2cccn3nc(Nc4ccc(C(=O)N5CC[C@H]6CNC[C@H]65)cc4)nc23)CC1` [Example 2-320, 1-[4-[2-[4-[(3aS,6aS)-3,3a,4,5,6,6a-hexahydro-2H-pyrrolo[2,3-c]pyrrole-1-carbonyl]anilino]-[1,2,4]triazolo[1,5-a]pyridin-8-yl]-3,6-dihydro-2H-pyridin-1-yl]-4,4,4-trifluoro-butan-1-one] belongs 0.76 nM.
As for `O=C(NC1CC2(CCNCC2)C1)c1ccc(Nc2nc3c(C4=CCN(C(=O)CCC(F)(F)F)CC4)cccn3n2)cc1` [Example 2-322, N-(7-azaspiro[3.5]nonan-2-yl)-4-[[8-[1-(4,4,4-trifluorobutanoyl)-3,6-dihydro-2H-pyridin-4-yl]-[1,2,4]triazolo[1,5-a]pyridin-2-yl]amino]benzamide], the Ki is 0.86 nM.
To `N[C@]12C[C@H]1CN(C(=O)c1ccc(Nc3nc4c(C5=CCN(C(=O)CCC(F)(F)F)CC5)cccn4n3)cc1)C2` [Example 2-323] belongs 1.44 nM; to `CN(C)C(=O)C1CN(C(=O)c2ccc(Nc3nc4c(C5=CCN(C(=O)CCC(F)(F)F)CC5)cccn4n3)cc2)CCN1C` (centres unmarked) [Example 2-325, N,N,1-trimethyl-4-[4-[[8-[1-(4,4,4-trifluorobutanoyl)-3,6-dihydro-2H-pyridin-4-yl]-[1,2,4]triazolo[1,5-a]pyridin-2-yl]amino]benzoyl] piperazine-2-carboxamide], 1.59 nM.
In the case of `CN1C[C@@H]2CCN(C(=O)c3ccc(Nc4nc5c(C6=CCN(C(=O)CCC(F)(F)F)CC6)cccn5n4)cc3)[C@@H]2C1` [Example 2-326, 1-[4-[2-[4-[(3aS,6aS)-5-methyl-2,3,3a,4,6,6a-hexahydropyrrolo[2,3-c]pyrrole-1-carbonyl]anilino]-[1,2,4]triazolo[1,5-a]pyridin-8-yl]-3,6-dihydro-2H-pyridin-1-yl]-4,4,4-trifluoro-butan-1-one] it was 0.98 nM.
To `CNC(=O)C1CN(C(C)C)CCN1C(=O)c1ccc(Nc2nc3c(C4=CCN(C(=O)CCC(F)(F)F)CC4)cccn3n2)cc1` (centres unmarked) [Example 2-327, 4-isopropyl-N-methyl-1-[4-[[8-[1-(4,4,4-trifluorobutanoyl)-3,6-dihydro-2H-pyridin-4-yl]-[1,2,4]triazolo[1,5-a]pyridin-2-yl]amino]benzoyl] piperazine-2-carboxamide] belongs 1.8 nM.
`CN1CCC2(C1)CN(C(=O)c1ccc(Nc3nc4c(C5=CCN(C(=O)CCC(F)(F)F)CC5)cccn4n3)cc1)C2` [Example 2-328, 4,4,4-trifluoro-1-[4-[2-[4-(7-methyl-2,7-diazaspiro[3.4]octane-2-carbonyl)anilino]-[1,2,4]triazolo[1,5-a]pyridin-8-yl]-3,6-dihydro-2H-pyridin-1-yl]butan-1-one]: the Ki came to 0.5 nM.
In the case of `O=C(CCC(F)(F)F)N1CC=C(c2cccn3nc(Nc4ccc(C(=O)N5CCN(C6CCCCC6)CC5)cc4)nc23)CC1` [Example 2-329, 1-[4-[2-[4-(4-cyclohexylpiperazine-1-carbonyl)anilino]-[1,2,4]triazolo[1,5-a]pyridin-8-yl]-3,6-dihydro-2H-pyridin-1-yl]-4,4,4-trifluoro-butan-1-one] it was 0.91 nM.
